Laboratory results as given in ChEMBL document CHEMBL4888484, “Replenishing the malaria drug discovery pipeline: Screening and hit evaluation of the MMV Hit Generation Library 1 (HGL1) against asexual blood stage Plasmodium falciparum ,using a nano luciferase reporter read-out” (2022).
About 540 (0.36%) of roughly 150,000 compounds showed an effect of 50% or more. Some of the results follow.

The molecules below were run on Plasmodium falciparum (assay: Primary screen in NF54 nanoGlo assay, in single point, at 2uM, 72h; a lower Z score goes with more inhibition). Conditions: timepoint 72 hour.
Type: functional, Erythrocyte
`Cc1nonc1CC(=O)NCCc1nccs1` was tested, and the “% Inhibition” value was -6% and the Z score was 1.01.
In the case of `COc1ccc(CN(C)C(=O)c2ccc(N(C)C)cc2)c(OC)c1`, the “% Inhibition” value was -20% and the Z score was 3.75.
For `Cc1ccc(OCC(=O)N2CCCN(C(=O)COc3ccc(C)cc3)CC2)cc1`, the “% Inhibition” value was -9% and the Z score was 0.99.
In the case of `Cc1cc(C)cc(OC(=O)c2cccc(N3C(=O)C4CCC(c5ccccc5)CC4C3=O)c2)c1` (stereo not drawn), the “% Inhibition” value was 4% and the Z score was -0.42.
In the case of `CN(Cc1cc[nH]n1)C(=O)NCCCOC1CCCC1`, the “% Inhibition” value was 0% and the Z score was 0.04.
In the case of `Brc1cc2c(c(CN3CCCCC3)c1)O[C@@H](c1ccccc1)OC2`, the “% Inhibition” value was 12% and the Z score was -1.83.
For `Cc1ccsc1CN(C(=O)[C@H]1CC(=O)N(C2CCCC2)C1)C(C)C`, the “% Inhibition” value was -6% and the Z score was 0.85.
In the case of `Cc1ccc(N2CCC(N[C@@H]3CC[C@@H]3NC(=O)Cc3ccccc3F)CC2)cc1`, the “% Inhibition” value was -4% and the Z score was 0.71.
`O=C(NCc1cccnc1-c1ccncc1)c1ccncc1` was tested, and the “% Inhibition” value was -3% and the Z score was 0.31.
With `O=C(Cn1c(=O)nc(-c2ccccc2F)c2cc(Cl)ccc21)NCCCc1ccccc1` the “% Inhibition” value was -11% and the Z score was 1.12.
In the case of `CNC(=NCc1c(F)c(F)cc(F)c1F)NCc1ccco1`, the “% Inhibition” value was -8% and the Z score was 1.49.
In the case of `CCC(CO)NC(=O)NC(C)c1ccc(-c2cccnc2)cc1` (stereo not drawn), the “% Inhibition” value was 8% and the Z score was -1.41.
With `C[C@H](Oc1ccc(F)cc1F)C(=O)NCc1nnc(N)s1` the “% Inhibition” value was -2% and the Z score was 0.49.
For `CCc1nnc(CNC(=O)c2cccc(-c3ncc(F)c(N(C)C)n3)c2)o1`, the “% Inhibition” value was -10% and the Z score was 1.12.
In the case of `O=C(Nc1cc[nH]n1)c1ccc2[nH]cnc2c1`, the “% Inhibition” value was -7% and the Z score was 1.32.
`CC(=O)N1C[C@@H](O)C[C@@H]1C(=O)NC(C)(C(N)=O)c1cccc(Cl)c1` (stereo partly drawn) was tested, and the “% Inhibition” value was -15% and the Z score was 1.95.
In the case of `O=C(CO)N1CC[C@]23C(=O)N(Cc4cn(nn4)CCCOc4cccc(c4)[C@@H]12)c1ccccc13`, the “% Inhibition” value was -7% and the Z score was 0.97.
For `COc1ccc(C(=O)N(Cc2cccc(Br)c2)[C@H]2CCS(=O)(=O)C2)cc1Cl`, the “% Inhibition” value was -11% and the Z score was 0.96.
With `N[C@@H](CN1CCCC1)c1ccc(F)cc1` the “% Inhibition” value was 10% and the Z score was -1.88.
For `Fc1ccc2oc(CN3CCCC4(C3)OCCO4)cc2c1`, the “% Inhibition” value was -1% and the Z score was 0.13.
In the case of `C=C(C)CC1NC2CC(C)(C)C1c1c(Br)ccc(Br)c12` (stereo not drawn), the “% Inhibition” value was -1% and the Z score was 0.14.
With `CCOc1ccc2ncc(C#N)c(N3CCC4(CC3)OCCO4)c2c1` the “% Inhibition” value was -7% and the Z score was 0.97.
For `Cn1nc(Cc2ccccc2)n(C2CCN(Cc3cccs3)CC2)c1=O`, the “% Inhibition” value was -1% and the Z score was 0.16.
In the case of `Cc1nccn1[C@@H](C)C(=O)NCCCn1ccnc1`, the “% Inhibition” value was 3% and the Z score was -0.55.
In the case of `Fc1ccc(CN2CCCn3nc(CN4CC[C@H](F)C4)cc3C2)cc1Cl`, the “% Inhibition” value was -3% and the Z score was 0.43.
With `COc1ccc(CNC(=O)Nc2ccc3c(c2)N(C(=O)c2ccccc2)CCC3)cc1OC` the “% Inhibition” value was 21% and the Z score was -4.61.
With `O=C(NCc1sncc1Br)NCC1CC1` the “% Inhibition” value was -5% and the Z score was 0.8.
In the case of `CS(=O)(=O)Nc1cccc(C(F)(F)F)n1`, the “% Inhibition” value was -7% and the Z score was 1.26.
For `Cc1ccc(CN2CCNC(=O)[C@@H]2CC(=O)NCc2n[nH]c3c2CCC3)o1`, the “% Inhibition” value was -3% and the Z score was 0.57.
For `CC(C)(C)n1nnc(CN2CC(Cc3ccccc3Cl)C2)n1`, the “% Inhibition” value was -4% and the Z score was 0.43.
With `O=C(Nc1ccc(C(F)(F)F)cc1)N1CCN(c2nc(-c3cccs3)nc3cc(Cl)ccc23)CC1` the “% Inhibition” value was -9% and the Z score was 1.34.
For `O=C(C[C@H]1COc2ccccc2N1Cc1ccc(F)cc1)NCc1ccc(F)cc1`, the “% Inhibition” value was -11% and the Z score was 1.52.
For `CC(C)C1=NO[C@H](C(=O)NC2(CN3CCCCC3)CCCCC2)C1`, the “% Inhibition” value was -10% and the Z score was 1.63.
`Clc1ccc(CNC2=NCCNC23CCOCC3)cc1` was tested, and the “% Inhibition” value was -13% and the Z score was 1.7.
For `Cc1nc([C@H](C)NCc2cc3cc4c(cc3nc2OCc2cccc(F)c2)OCO4)cs1`, the “% Inhibition” value was -10% and the Z score was 1.42.
For `CC[C@@H](C(=O)N(C)Cc1ccc(-n2cccn2)cc1)N1CCOCC1`, the “% Inhibition” value was -13% and the Z score was 1.91.
In the case of `C=C1C(C)(C)[C@H]2CC[C@]1(c1nc(C3CC3)n[nH]1)C2`, the “% Inhibition” value was -8% and the Z score was 0.73.
With `Cc1nc(CNC(=O)C[C@H]2CCOC2)cs1` the “% Inhibition” value was -14% and the Z score was 1.86.
With `Cc1cnc(NCC2(CO)CC3(CCC3)C2)nc1` the “% Inhibition” value was 7% and the Z score was -0.88.
For `Cc1cccc(C2c3cc(OC(C)C(=O)NCCN4CCCC4)ccc3CCN2C(=O)C2CCCC2)c1` (stereo not drawn), the “% Inhibition” value was -6% and the Z score was 0.55.
For `Cc1cc(NC(=O)N(CCC#N)CCC(F)(F)F)ccc1Br`, the “% Inhibition” value was -2% and the Z score was 0.34.
In the case of `COc1ccc(N2C(=O)CN(C(=O)C3CCCCC3)CC2(C)C)cc1`, the “% Inhibition” value was 10% and the Z score was -1.44.
In the case of `c1csc(CN2CCC(Nc3nnc(C4CCC4)o3)CC2)c1`, the “% Inhibition” value was -5% and the Z score was 0.56.
`Cc1ccc(CN(C)[C@@H](C)C(=O)NC(=O)NC2CCCCC2)o1` was tested, and the “% Inhibition” value was -10% and the Z score was 1.15.
With `CS(=O)(=O)c1ccc(CN2CCOC[C@@H]2CC2CCC2)o1` the “% Inhibition” value was -4% and the Z score was 0.57.
For `Cc1cc(Nc2ccc(N(C)C)nc2)n2ncnc2n1`, the “% Inhibition” value was -2% and the Z score was 0.35.
In the case of `Cc1ccc(NC(=O)CC(C)NCC(C)(O)c2cccs2)c(C)c1` (stereo not drawn), the “% Inhibition” value was 0% and the Z score was -0.04.
`CCCN(CCOC)C(=O)NCc1cc(O)ncn1` was tested, and the “% Inhibition” value was -6% and the Z score was 1.08.
`COc1ccc(NC(=O)C2CC(=O)OC2c2ccc3c(c2)OCCO3)cc1` (stereo not drawn) was tested, and the “% Inhibition” value was 5% and the Z score was -0.55.
`O=S(=O)(N[C@H]1CCCC12CCOCC2)c1cccc2ccoc12` was tested, and the “% Inhibition” value was -8% and the Z score was 1.58.
In the case of `O=C1NC2(CCC(c3ccccc3)CC2)C(=O)N1CN1CCC[C@H](C(F)(F)F)C1` (stereo partly drawn), the “% Inhibition” value was -8% and the Z score was 1.46.
For `O=C(c1cc(-c2ccc(O)cc2)n[nH]1)N1CC[C@@H]2OCc3cnnn3[C@H]2C1`, the “% Inhibition” value was -27% and the Z score was 2.85.
`CCCc1noc(CN[C@H](c2c(C)nn(C)c2C)C(F)(F)F)n1` was tested, and the “% Inhibition” value was -6% and the Z score was 0.77.
In the case of `COc1ccc(CN2CCN(CC(=O)Nc3ccccc3C(=O)NCc3ccco3)CC2)cc1F`, the “% Inhibition” value was 4% and the Z score was -0.44.
In the case of `N#Cc1ccccc1-c1nc2ccc(-c3ccc4c(c3)OCO4)cc2o1`, the “% Inhibition” value was -11% and the Z score was 1.58.
With `CCOc1cccc(-n2cc(-c3ccccc3)nc2NC(=O)CN(C[C@H]2CCCO2)C(=O)c2cccc(OC)c2)c1` the “% Inhibition” value was -11% and the Z score was 1.06.
For `COc1cccc(CO[C@@H]2CN(C(=O)CCCn3cncn3)CC(=O)N(CC(C)C)C2)c1`, the “% Inhibition” value was 7% and the Z score was -0.88.
In the case of `COCCNC(=O)c1cnc2ccc(F)cc2c1O`, the “% Inhibition” value was 4% and the Z score was -0.56.
`CC1CCN(c2cc3c(cc2S(=O)(=O)N(C)C)C(=O)Nc2ccccc2O3)CC1` was tested, and the “% Inhibition” value was -10% and the Z score was 1.42.
`Cc1cnccc1CN(C)C(=O)CCCn1cccn1` was tested, and the “% Inhibition” value was -6% and the Z score was 1.08.
In the case of `CC(C)[C@@H]1N(C(=O)Nc2ccn(CC(=O)N(C)C)n2)CC12CCCC2`, the “% Inhibition” value was -2% and the Z score was 0.4.
For `Cc1nnsc1CNC(=O)[C@H](C)c1n[nH]c(=O)c2ccccc12`, the “% Inhibition” value was -11% and the Z score was 1.44.
For `Cn1nccc1C1(O)CCN(C(=O)OC2CCC2)CC1`, the “% Inhibition” value was 0% and the Z score was -0.07.
For `COC(=O)N[C@@H](CC(C)C)C(=O)Nc1cc(CO)cc(CO)c1`, the “% Inhibition” value was 3% and the Z score was -0.44.
In the case of `COCCc1noc([C@@H]2CCCN2CC(=O)Nc2ccc(Cl)cn2)n1`, the “% Inhibition” value was -24% and the Z score was 3.1.
`CCCC1(C2CCN(C(=O)C(C)Oc3ccccc3)CC2)NC(=O)N(Cc2ccco2)C1=O` (stereo not drawn) was tested, and the “% Inhibition” value was -16% and the Z score was 2.05.
`CCn1cc(OCC(=O)NCCc2cccs2)cn1` was tested, and the “% Inhibition” value was 2% and the Z score was -0.19.
For `O=C(Nc1ccc2c(c1)OCO2)N1CCC(Oc2ccsc2)CC1`, the “% Inhibition” value was 12% and the Z score was -1.64.
For `CC(C)Cc1cc(CNC2CCCC2)on1`, the “% Inhibition” value was -2% and the Z score was 0.39.
`Cc1cc(C(=O)N(c2ccccn2)C2CCCC2)nc(C(F)(F)F)n1` was tested, and the “% Inhibition” value was -13% and the Z score was 2.07.
`COC(=O)c1sc(NCc2nc(C3CC3)cs2)nc1C` was tested, and the “% Inhibition” value was -4% and the Z score was 0.8.
For `FC(F)(F)c1ccccc1CNc1nnc(CCOc2ccccc2)o1`, the “% Inhibition” value was -13% and the Z score was 1.76.
With `CCOC(=O)CNC(=O)N1CCC(C)(c2noc(C3CCOCC3)n2)CC1` the “% Inhibition” value was -1% and the Z score was 0.16.
For `O=C(c1ccc(C2CCC2)cc1)N1CCC(O)CC1`, the “% Inhibition” value was 0% and the Z score was -0.06.
In the case of `C#CCN1C(=O)N[C@@](CC)(C(C)C)C1=O`, the “% Inhibition” value was 38% and the Z score was -1.11.
With `O=C(NCc1nccnc1-c1cccnc1)c1ccncc1F` the “% Inhibition” value was -12% and the Z score was 1.37.
With `COCCN(C)C[C@@H]1CN(c2cc(C)c3cccc(OC)c3n2)C[C@@H]1CO` the “% Inhibition” value was 2% and the Z score was -0.29.
In the case of `CC(C)c1ncc(CN(C)Cc2cc(C(C)C)on2)cn1`, the “% Inhibition” value was -7% and the Z score was 1.28.
In the case of `Cc1nc(C)c(C)c(N[C@H]2CCCN(Cc3cccc(O)c3)C2)n1`, the “% Inhibition” value was 6% and the Z score was -0.64.
`C[C@@H](Cn1ccnc1)NC(=O)CCC(=O)c1ccc2c(c1)OCCO2` was tested, and the “% Inhibition” value was -4% and the Z score was 0.61.
With `CCC(=O)N1CC[C@H](NC(=O)NC2(Cc3ccccc3)CCCC2)C1` the “% Inhibition” value was -10% and the Z score was 1.93.
In the case of `CN(Cc1ccnc2ccccc12)C(=O)c1cn(Cc2ccc(F)cc2Cl)nn1`, the “% Inhibition” value was 1% and the Z score was -0.16.
With `Cc1c(Cl)cccc1C(=O)Nc1cc(-c2nccn2C)nn1C` the “% Inhibition” value was 3% and the Z score was -0.41.
With `CC(C)CCNC(=O)c1csc(CN(CCC(c2ccccc2)c2ccccc2)Cc2ccc(F)cc2)n1` the “% Inhibition” value was -11% and the Z score was 1.22.
